# “And” between values parts separate entries of the source, which are not always exact repeats. Identical values can stand only once. The campaign covered roughly 220,000 compounds. About 16,000 (7.3%) were called active. The shares of active, inactive and inconclusive entries below differ from those in the screen. Calls come from the whole dose curve; as a rule, active = well fitted inhibition curve with a large enough effect (not every such curve was filed as active); inconclusive = small, poorly fitted or top-dose-only effect, or another doubt; inactive = no such curve, though single readings can be large or run the other way. Where the call is inconclusive, the potency comes from a doubtful curve fit.
# Target: Aldehyde dehydrogenase 1A1 (Homo sapiens) (UniProt P00352)
# Test: qHTS Assay for Inhibitors of Aldehyde Dehydrogenase 1 (ALDH1A1);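 for activity, negative = inhibition: plate controls were no enzyme wells and a reference inhibitor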
# Conditions: Purified ALDH1A1, NADH fluorescence, propionaldehyde substrate; series mostly up to 75.3 µM; activity, negative = inhibition: at the top concentration
# Potency is the fitted concentration of half-maximal effect; tags give direction and shape of the fitted curve.
# Sequence of UniProt P00352 (P00352 whole entry, looked up): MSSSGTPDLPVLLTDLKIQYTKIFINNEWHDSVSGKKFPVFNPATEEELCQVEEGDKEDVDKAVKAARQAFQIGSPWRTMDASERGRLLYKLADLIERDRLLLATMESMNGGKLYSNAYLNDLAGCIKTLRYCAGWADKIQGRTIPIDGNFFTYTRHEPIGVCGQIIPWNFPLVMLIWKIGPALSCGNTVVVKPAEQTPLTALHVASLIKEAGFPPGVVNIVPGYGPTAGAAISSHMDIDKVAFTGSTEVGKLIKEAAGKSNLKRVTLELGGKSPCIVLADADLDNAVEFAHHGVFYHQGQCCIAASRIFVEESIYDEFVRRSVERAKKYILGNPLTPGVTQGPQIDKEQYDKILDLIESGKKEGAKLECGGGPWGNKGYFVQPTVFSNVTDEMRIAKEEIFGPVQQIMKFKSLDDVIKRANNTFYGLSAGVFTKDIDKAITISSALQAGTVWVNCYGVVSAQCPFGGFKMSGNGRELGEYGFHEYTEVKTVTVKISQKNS
SMILES,Potency,"activity, negative = inhibition"
O=C(c1ccc2c(c1)OCCO2)C1CCN(C(=O)c2ccc(F)cc2)CC1,"inconclusive: 28.2 µM [inhibitor, partial curve]",–
CCc1ccc(N2C(=O)C(Cl)=C(N3CCOCC3)C2=O)cc1,"inconclusive: 15.8 µM [inhibitor, partial curve, poor fit]",–
CN(C)c1ccc(-n2cccc2/C=C/[N+](=O)[O-])cc1,"inconclusive: 39.8 µM [inhibitor, single point]",–
O/C(=C\c1nc2ccccc2nc1/C=C(\O)c1ccccc1)c1ccccc1,–,inactive: 5.2%
N#Cc1cc(C(=O)c2ccccc2O)cn(-c2nccs2)c1=O,"inconclusive: 39.8 µM [inhibitor, single point]",–
Cc1nc2c(C(=O)NCc3cccs3)cnn2c(C)c1Cc1ccc(F)cc1,"inconclusive: 35.5 µM [inhibitor, partial curve]",–
CC(C)[C@@H](CC(=O)N[C@@H]1CCCC[C@H]1C(=O)N[C@H](CC(=O)N[C@@H](CCC(=O)O)CC(=O)O)Cc1c[nH]c2ccccc12)NC(=O)C[C@H](Cc1ccccc1)NC(=O)[C@@H]1CNCC[C@H]1N,–,inactive: -6.21%
CCc1nc2ccc(C(=O)Nc3cccc(C(C)=O)c3)cc2nc1CC,"inconclusive: 35.5 µM [inhibitor, single point]",–
CCCCCC(=O)/C=C/C=C\C/C=C\C/C=C\CCCC(=O)O,inactive,–
Cc1cccc(N)c1-c1c(C)cccc1N,–,inactive: 1.32%
CC(=O)/C(=N/Nc1cccc(Cl)c1)N1CCOCC1,active: 12.6 µM,–
COCCCn1c(SCC(=O)c2ccccc2)nc2ccccc2c1=O,"inconclusive: 14.1 µM [inhibitor, partial curve]",–
O=C(NCCCN1CCCC1=O)c1cc(=O)c2ccccc2o1,–,inactive: -8.24%
COc1ccc(Cl)cc1C(=O)CSc1nc(N)cc(N)n1,–,inactive: 7.77%
CC1CC(C)(C)N2C(=O)C3(Nc4ccccc4S3)c3cccc1c32 (configuration not stated),"inconclusive: 39.8 µM [inhibitor, single point]",–
CCOC(=O)c1cnc2nc(C)[nH]n2c1=O,–,inactive: -3.6%
CC1CCC2=NN(C(=O)c3ccco3)C(O)(C(F)(F)F)C2C1 (configuration not stated),–,inactive: -13.9%
O=C(Nc1ccccc1F)c1ccc2nc(N3C(=O)CCC3=O)sc2c1,"inconclusive: 39.8 µM [inhibitor, single point]",–
COc1ccccc1CNc1ncnc2ccc(-c3ccc4c(c3)OCO4)cc12,"inconclusive: 25.1 µM [inhibitor, partial curve]",–
CCN(CC)S(=O)(=O)c1ccc(NC(=O)CSc2cccc[n+]2[O-])cc1,active: 22.4 µM,–
COc1ccc2c(Cl)c(C(=O)N/N=C/c3ccc4c(c3)OCO4)sc2c1,"inconclusive: 35.5 µM [inhibitor, single point]",–
Cc1cc(/C=C(\C#N)C(=O)Nc2ccc(F)cc2)c(C)n1-c1ccc(N2CCOCC2)c([N+](=O)[O-])c1,active: 15.8 µM,–
CCOC(=O)NC(=O)/C(C#N)=C\c1ccccc1,active: 7.08 µM,–
Cc1cc(C)n2ncc(C(=O)NC3CCCCC3)c2n1,"inconclusive: 14.1 µM [inhibitor, partial curve]",–

SMILES,Potency,"activity, negative = inhibition"
O=S(=O)(Nc1nc2ccccc2[nH]1)c1ccccc1,"inconclusive: 20 µM [inhibitor, single point]",–
CC(C)OC(=O)c1cc(C(=O)c2cc(Br)ccc2O)coc1=N,"inconclusive: 39.8 µM [inhibitor, single point]",–
CCOc1ccc(S(=O)(=O)N2CCCCCC2)cc1,–,inactive: -2.69%
Cn1nc(Oc2nc(N3CCOCC3)nc(N3CCOCC3)n2)ccc1=O,–,inactive: 17.5%
O=C(O)c1cc(S(=O)(=O)O)ccc1O,"inconclusive: 39.8 µM [inhibitor, single point]",–
CCC(=O)c1ccccc1OCCN1CCN(CC)CC1,–,inactive: -13.3%
O=C(CSc1ncccn1)c1ccccc1Br,"inconclusive: 39.8 µM [inhibitor, single point]",–
COc1cc(C=C2C(=O)OC(C)(C)OC2=O)ccc1OCC(=O)Nc1ccccc1,"inconclusive: 10 µM [inhibitor, partial curve, poor fit]",–
COc1ccc(C(=O)N2CCCC(c3ccccc3)=N2)cc1,"inconclusive: 39.8 µM [inhibitor, single point]",–
COc1ccc(C(=O)c2sc3nc(-c4ccccc4)ccc3c2N)cc1,"inconclusive: 39.8 µM [inhibitor, single point]",–
FC(F)c1nc2ccccc2[nH]1,"inconclusive: 25.1 µM [inhibitor, single point]",–
COc1cccc(NC(=O)CSc2ncnc3c2cnn3Cc2ccccc2)c1,"inconclusive: 28.2 µM [inhibitor, single point]",–
Cc1ccccc1OCC(=O)N1N=C(c2cccnc2)CC1(O)C(F)(F)F (configuration not stated),"inconclusive: 39.8 µM [inhibitor, single point]",–
Cc1ccccc1NC(=S)NC(=O)CCc1ccccc1,"inconclusive: 28.2 µM [inhibitor, single point]",–
Cc1ccc(CN2C(=O)C(C)(C)Oc3ccc(C(=O)N4CCCCC4)cc32)cc1,–,inactive: 4.41%
COc1ccccc1NC(=O)Cc1csc(NC(=O)c2ccccc2)n1,–,inactive: -6.44%
CC(=O)NCCCc1c[nH]c2ccc(Cl)cc12,–,inactive: -0.415%
COC(=O)[C@@]1(Cc2ccc(OC)cc2)[C@H]2c3cc(C(=O)N4CCCC4)n(CCc4c[nH]c5ccc(O)cc45)c3C[C@H]2CN1C(=O)c1ccccc1,"inconclusive: 14.1 µM [inhibitor, partial curve] and inconclusive: 10 µM [inhibitor, partial curve]",–
Cc1ccc(C(=O)NC(=S)Nc2c(C)ccc3nsnc23)cc1,"inconclusive: 35.5 µM [inhibitor, single point]",–
Cc1ccc(-c2csc3ncnc(N4CCN(C(=O)c5ccccc5)CC4)c23)cc1,active: 12.6 µM,–
Cc1ccccc1Nc1nc(N)nc(CSc2nnnn2C)n1,–,inactive: 4.44%
Cc1ccc(SCC(=O)c2c(C)nc3ccccn23)cc1,"inconclusive: 39.8 µM [inhibitor, single point]",–
COc1cc(-c2coc3cc(OCc4ccccc4)c(OC)c(O)c3c2=O)cc(O)c1OC,"inconclusive: 39.8 µM [inhibitor, single point]",–
CCOC(=O)c1sc(Nc2nc(C)cc(OC)n2)nc1C,"inconclusive: 0.631 µM [inhibitor, full curve, poor fit]",–

SMILES,Potency,"activity, negative = inhibition"
O=[N+]([O-])c1cc(S(=O)(=O)N2CCCC2)ccc1SCCO,"inconclusive: 25.1 µM [inhibitor, single point]",–
COc1ccc(COC2OC[C@]3(C)[C@H]4C5=C(CN3C(=O)OC(C)(C)C)[C@H](C)C(CO)C(CO)C5CC[C@@H]24)cc1 (some centres not stated),–,inactive: -7.4%
CCCCN(C)C(=O)c1nc2ccccn2c1CN1CCN(c2ccccn2)CC1,–,inactive: -0.815%
COc1ccc(Cc2nnc(N=Nc3c(O)[nH]c4ccc(Br)cc34)[nH]c2=O)cc1,"inconclusive: 31.6 µM [inhibitor, single point]",–
CCOc1cc2[nH]c(=O)n(CCCCC(=O)NCc3ccco3)c(=O)c2cc1OCC,"inconclusive: 44.7 µM [inhibitor, single point]",–
O=C(CCS(=O)(=O)c1cccc2nsnc12)NCc1ccccc1,"inconclusive: 39.8 µM [inhibitor, single point]",–
Cc1ccc(S(=O)(=O)Nc2nc3ccccc3nc2N2CCN(c3ccccc3F)CC2)cc1,–,inactive: -7.4%
CCN1C(=O)/C(=C/N(C)c2ccccc2)OC1=S,"inconclusive: 10 µM [inhibitor, partial curve]",–
COC(=O)c1sccc1NC(=S)N1CCN(c2cccc(C)c2C)CC1,"inconclusive: 39.8 µM [inhibitor, single point]",–
N#Cc1c(Cl)c(Cl)c2nnc(-c3ccc(Br)cc3)n2c1Cl,"inconclusive: 39.8 µM [inhibitor, single point]",–
S=C(NCc1ccccc1)NNc1nc2ccccc2[nH]1,active: 1.26 µM,–
CCCc1noc2c1C(c1cc(Br)ccc1F)C(C#N)=C(N)N2 (configuration not stated),active: 11.2 µM,–
Cc1coc(=N)n1CC(=O)c1ccc(Cl)cc1,–,inactive: -15.2%
CCCCNC(=O)COC(=O)CNC(=O)c1cc(Cl)cc([N+](=O)[O-])c1,–,inactive: 2.22%
Cc1nn(C)cc1CNC(=O)C1(C)CC1(Cl)Cl (configuration not stated),–,inactive: 1.99%
COC(=O)c1c2c(nc3ccccc13)CCC2,"inconclusive: 39.8 µM [inhibitor, single point]",–
COc1cc2ncc(S(=O)(=O)c3ccccc3)c(N3CCC4(CC3)OCCO4)c2cc1OC,"inconclusive: 20 µM [inhibitor, partial curve]",–
Cc1ccc(C(=O)N/C(=C\c2ccco2)C(=O)N2CCSCC2)cc1C,"inconclusive: 39.8 µM [inhibitor, single point]",–
CC(C)c1nc(CN(C)C(=O)N[C@H](C(=O)N[C@@H](Cc2ccccc2)C[C@H](O)[C@H](Cc2ccccc2)NC(=O)OCc2cncs2)C(C)C)cs1,"inconclusive: 39.8 µM [inhibitor, single point]",–
CC(C)C(NC(=O)C(Cc1ccc(O)cc1)NC(=O)C(NC(=O)C(F)(F)F)C(C)C)C(=O)O (configuration not stated),–,inactive: 1.63%
O=C(c1ccccc1C(=O)N1CCN(c2ccccc2)CC1)N1CCN(c2ccccc2)CC1,"inconclusive: 7.94 µM [inhibitor, single point]",–
Cc1ccc(NC(=O)/C(=C/c2ccco2)c2ccccc2)c(C)c1,"inconclusive: 35.5 µM [inhibitor, single point]",–
O=C(NNc1ccccc1F)C1CCC1,–,inactive: -6.65%
COc1cc2c(cc1OC)-c1cc3nc4ccccc4nc3n1C(C)(C)C2,"inconclusive: 39.8 µM [inhibitor, single point]",–
